Assay results published in paper PMC4776139, “Extended string-like binding of the phosphorylated HP1α N-terminal tail to the lysine 9-methylated histone H3 tail” (Scientific Reports, 2016).

Experiments:
Test in all cases: ITC; 400 μM H3K9me peptide injected from the syringe into 40 μM protein in the cell (VP-ITC); 20 °C; 20 mM KPB pH 6.80, 10 mM NaCl; one-site binding model
Settings in all cases: both partners purified
[1] = biological target: T1, phosphorylated HP1α chromodomain with N-terminal tail (phos-NCD, amino acids 1–80, phosphorylated at Ser11–14) (mouse, UniProt Q61686 1-80, phosphoserine at 11, 12, 13 and 14)
T1 construct: three amino acids left at the N-terminus after cleavage by thrombin; HP1α (heterochromatin protein 1 alpha), amino acids 1–80: N-terminal tail (1–19) and chromodomain (20–80); Species from the introduction (mouse HP1 isoforms); 13C/15N-labelled for NMR; not shown: His tag, N-terminal, cleaved

[2] = biological target: T2, HP1α chromodomain alone, NCDΔ1–19 (amino acids 20–80) (mouse, UniProt Q61686 20-80)
T2 construct: three amino acids left at the N-terminus after cleavage by thrombin; HP1α, amino acids 20–80 (chromodomain); Species from the introduction (mouse HP1 isoforms); also called isolated CD; source: E. coli BL21 (DE3) star, purified (Ni-NTA, thrombin digestion, Superdex 75); not shown: His tag, N-terminal, cleaved

[3] = biological target: T3, HP1α NCDΔ1–4 (amino acids 5–80), un-phosphorylated (mouse, UniProt Q61686 5-80)
T3 construct: three amino acids left at the N-terminus after cleavage by thrombin; HP1α, amino acids 5–80; Species from the introduction (mouse HP1 isoforms); source: E. coli BL21 (DE3) star, purified (Ni-NTA, thrombin digestion, Superdex 75); not shown: His tag, N-terminal, cleaved

[4] = biological target: T4, phosphorylated HP1α NCDΔ1–4 (amino acids 5–80) (mouse, UniProt Q61686 5-80, the serine residues of the tail phosphorylated (Ser11–14))
T4 construct: three amino acids left at the N-terminus after cleavage by thrombin; HP1α, amino acids 5–80; Species from the introduction (mouse HP1 isoforms); also called phos-NCD^Δ1–4; source: E. coli BL21 (DE3) star, co-expressed with casein kinase II, purified (Ni-NTA, thrombin digestion, Superdex 75); not shown: His tag, N-terminal, cleaved

[5] = biological target: T5, phosphorylated HP1α NCDΔ1–9 (amino acids 10–80) (mouse, UniProt Q61686 10-80, phosphorylated serine residues of 10DpSpSpSpS14 (Ser11–14))
T5 construct: two amino acids attached to the N-terminus (HRV3C recognition site); HP1α, amino acids 10–80 (phosphorylated serine segment, acidic segment and chromodomain); Species from the introduction (mouse HP1 isoforms); also called phos-NCD^Δ1–9; phosphorylated D10; not shown: His tag, N-terminal, cleaved

[6] = biological target: T6, HP1α NCDΔ1–9 (amino acids 10–80), un-phosphorylated (mouse, UniProt Q61686 10-80)
T6 construct: two amino acids attached to the N-terminus (HRV3C recognition site); HP1α, amino acids 10–80 (serine segment, acidic segment and chromodomain); Species from the introduction (mouse HP1 isoforms); also called un-phosphorylated D10; source: E. coli BL21 (DE3) star, purified (Ni-NTA, HRV3C recognition site in place of the thrombin site, Superdex 75); not shown: His tag, N-terminal, cleaved

[7] = biological target: T7, HP1α NCDΔ1–14 (amino acids 15–80), un-phosphorylated (mouse, UniProt Q61686 15-80)
T7 construct: three amino acids left at the N-terminus after cleavage by thrombin; HP1α, amino acids 15–80 (acidic segment 15EDEEE19 and chromodomain); Species from the introduction (mouse HP1 isoforms); source: E. coli BL21 (DE3) star, purified (Ni-NTA, thrombin digestion, Superdex 75); not shown: His tag, N-terminal, cleaved

[8] = biological target: T8, un-phosphorylated HP1α chromodomain with N-terminal tail (unmod-NCD, amino acids 1–80) (mouse, UniProt Q61686 1-80)
T8 construct: three amino acids left at the N-terminus after cleavage by thrombin; HP1α (heterochromatin protein 1 alpha), amino acids 1–80: N-terminal tail (1–19) and chromodomain (20–80); 13C/15N-labelled for NMR; also called numod-NCD; source: E. coli BL21 (DE3) star, pCold/Amp (HP1αCD), purified (Ni-NTA, thrombin digestion, Superdex 75); not shown: His tag, N-terminal, cleaved

B1: H3K9me peptide (22-mer, […] of histone H3 with a C-terminal tyrosine) (peptide)
peptide: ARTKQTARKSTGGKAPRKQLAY
modifications: methylated lysine at 9 (Kme; 'the three methyl groups of H3K9', 'H3K9me3 peptide')
notes: histone H3, […]; C-terminal tyrosine added for quantitative analysis; The added tyrosine is no part of histone H3; also called H3K9me3 peptide; source: synthetic peptide, bought: Sigma Genosys
Kd [1]: 170 nM
Kd [2]: 13300 nM
Kd [3]: 760 nM
Kd [4]: 380 nM
Kd [5]: 40 nM
Kd [6]: 160 nM
Kd [7]: 2520 nM
Kd [8]: 1770 nM
